# Data: the supplement of paper PMC8728848
# This is one part of the list.
# B1: CBM40 CPF071 (Clostridium perfringens) (protein)
# chain: MAHHHHHHVGTGSNDDDDKSPDPMLSSLGEYKDINLESSNASNITYDLEKYKNLDEGTIVVRFNSKDSKIQSLLGISNSKTKNGYFNFYVTNSRVGFELRNQKNEGNTQNGTENLVHMYKDVALNDGDNTVALKIEKNKGYKLFLNGKMIKEVKDTNTKFLNNIENLDSAFIGKTNRYGQSNEYNFKGNIGFMNIYNEPLGDDYLLSKTGETK
# What was measured:
# Assay in all cases: glycan array binding signal (z-score within array); higher = stronger binding
# Settings in all cases: glycan notation: IUPAC condensed, linker removed
# Neu5Ac(a2-3)GalNAc = biological target: Neu5Ac(a2-3)GalNAc
# In short: (§1)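 Negative Z-scores can be read as non-binding. The Z-score is calculated within each array and then averaged across arrays of one protein sequence at different concentrations or buffers and across linkers. Arrays, 3228 in all, were curated from the Consortium for Functional Glycomics database and kept only where the protein sequence was available.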
# [1] = biological target: Neu5Ac(a2-3)GalNAc(b1-4)GlcNAc
# In short: as §1
# [2] = biological target: Neu5Ac(a2-3)[GalNAc(b1-4)]Gal(b1-4)Glc
# In short: as §1
# [3] = biological target: Neu5Ac(a2-3)[GalNAc(b1-4)]Gal(b1-4)GlcNAc
# In short: as §1
# [4] = biological target: Neu5Ac(a2-3)[GalNAc(b1-4)]Gal(b1-4)GlcNAc(b1-3)GalNAc
# In short: as §1
# [5] = biological target: Neu5Ac(a2-3)[Neu5Ac(a2-6)]GalNAc
# In short: as §1
# Neu5Ac(a2-6)Gal = biological target: Neu5Ac(a2-6)Gal
# In short: as §1
# [6] = biological target: Neu5Ac(a2-6)Gal(b1-3)GlcNAc(b1-3)[Gal(b1-4)GlcNAc(b1-6)]Gal(b1-4)Glc
# In short: as §1
# Neu5Ac(a2-6)Gal(b1-4)Glc = biological target: Neu5Ac(a2-6)Gal(b1-4)Glc
# In short: as §1
# [7] = biological target: Neu5Ac(a2-6)Gal(b1-4)GlcNAc
# In short: as §1
# [8] = biological target: Neu5Ac(a2-6)Gal(b1-4)GlcNAc(b1-2)Man
# In short: as §1
# [9] = biological target: Neu5Ac(a2-6)Gal(b1-4)GlcNAc(b1-2)Man(a1-3)Man(b1-4)GlcNAc(b1-4)GlcNAc
# In short: as §1
# [10] = biological target: Neu5Ac(a2-6)Gal(b1-4)GlcNAc(b1-2)Man(a1-3)[Gal(b1-4)GlcNAc(b1-2)Man(a1-6)]Man(b1-4)GlcNAc(b1-4)GlcNAc
# In short: as §1
# [11] = biological target: Neu5Ac(a2-6)Gal(b1-4)GlcNAc(b1-2)Man(a1-3)[GlcNAc(b1-4)][Neu5Ac(a2-6)Gal(b1-4)GlcNAc(b1-2)Man(a1-6)]Man(b1-4)GlcNAc(b1-4)GlcNAc
# In short: as §1
# [12] = biological target: Neu5Ac(a2-6)Gal(b1-4)GlcNAc(b1-2)Man(a1-3)[Man(a1-6)]Man(b1-4)GlcNAc(b1-4)GlcNAc
# In short: as §1
# [13] = biological target: Neu5Ac(a2-6)Gal(b1-4)GlcNAc(b1-2)Man(a1-3)[Neu5Ac(a2-3)Gal(b1-4)GlcNAc(b1-2)Man(a1-6)]Man(b1-4)GlcNAc(b1-4)GlcNAc
# In short: as §1
# [14] = biological target: Neu5Ac(a2-6)Gal(b1-4)GlcNAc(b1-2)Man(a1-3)[Neu5Ac(a2-6)Gal(b1-4)GlcNAc(b1-2)Man(a1-6)]Man(b1-4)GlcNAc(b1-4)GlcNAc
# In short: as §1
# [15] = biological target: Neu5Ac(a2-6)Gal(b1-4)GlcNAc(b1-2)Man(a1-3)[Neu5Ac(a2-6)Gal(b1-4)GlcNAc(b1-2)Man(a1-6)]Man(b1-4)GlcNAc(b1-4)[Fuc(a1-6)]GlcNAc
# In short: as §1
# [16] = biological target: Neu5Ac(a2-6)Gal(b1-4)GlcNAc(b1-2)Man(a1-6)Man(b1-4)GlcNAc(b1-4)GlcNAc
# In short: as §1
# [17] = biological target: Neu5Ac(a2-6)Gal(b1-4)GlcNAc(b1-2)Man(a1-6)[Gal(b1-4)GlcNAc(b1-2)Man(a1-3)]Man(b1-4)GlcNAc(b1-4)GlcNAc
# In short: as §1
# [18] = biological target: Neu5Ac(a2-6)Gal(b1-4)GlcNAc(b1-2)Man(a1-6)[GlcNAc(b1-2)Man(a1-3)]Man(b1-4)GlcNAc(b1-4)GlcNAc
# In short: as §1
# [19] = biological target: Neu5Ac(a2-6)Gal(b1-4)GlcNAc(b1-2)Man(a1-6)[Man(a1-3)]Man(b1-4)GlcNAc(b1-4)GlcNAc
# In short: as §1
# [20] = biological target: Neu5Ac(a2-6)Gal(b1-4)GlcNAc(b1-2)[Neu5Ac(a2-6)Gal(b1-4)GlcNAc(b1-4)]Man(a1-3)[GlcNAc(b1-4)][Neu5Ac(a2-6)Gal(b1-4)GlcNAc(b1-2)[Neu5Ac(a2-6)Gal(b1-4)GlcNAc(b1-6)]Man(a1-6)]Man(b1-4)GlcNAc(b1-4)GlcNAc
# In short: as §1
# [21] = biological target: Neu5Ac(a2-6)Gal(b1-4)GlcNAc(b1-2)[Neu5Ac(a2-6)Gal(b1-4)GlcNAc(b1-4)]Man(a1-3)[GlcNAc(b1-4)][Neu5Ac(a2-6)Gal(b1-4)GlcNAc(b1-4)Man(a1-6)]Man(b1-4)GlcNAc(b1-4)GlcNAc
# In short: as §1
# [22] = biological target: Neu5Ac(a2-6)Gal(b1-4)GlcNAc(b1-2)[Neu5Ac(a2-6)Gal(b1-4)GlcNAc(b1-6)]Man(a1-6)[Neu5Ac(a2-6)Gal(b1-4)GlcNAc(b1-2)Man(a1-3)][GlcNAc(b1-4)]Man(b1-4)GlcNAc(b1-4)GlcNAc
# In short: as §1
# [23] = biological target: Neu5Ac(a2-6)Gal(b1-4)GlcNAc(b1-3)Gal(b1-3)GlcNAc
# In short: as §1
# [24] = biological target: Neu5Ac(a2-6)Gal(b1-4)GlcNAc(b1-3)Gal(b1-4)GlcNAc
# In short: as §1
# [25] = biological target: Neu5Ac(a2-6)Gal(b1-4)GlcNAc(b1-3)Gal(b1-4)GlcNAc(b1-2)Man(a1-3)[Neu5Ac(a2-6)Gal(b1-4)GlcNAc(b1-3)Gal(b1-4)GlcNAc(b1-2)Man(a1-6)]GalNAc
# In short: as §1
# [26] = biological target: Neu5Ac(a2-6)Gal(b1-4)GlcNAc(b1-3)Gal(b1-4)GlcNAc(b1-3)Gal(b1-4)GlcNAc
# In short: as §1
# [27] = biological target: Neu5Ac(a2-6)Gal(b1-4)GlcNAc(b1-3)Gal(b1-4)GlcNAc(b1-3)Gal(b1-4)GlcNAc(b1-2)Man(a1-3)[Neu5Ac(a2-6)Gal(b1-4)GlcNAc(b1-3)Gal(b1-4)GlcNAc(b1-3)Gal(b1-4)GlcNAc(b1-2)Man(a1-6)]GalNAc
# In short: as §1
# [28] = biological target: Neu5Ac(a2-6)Gal(b1-4)GlcNAc(b1-3)Gal(b1-4)GlcNAc(b1-3)GalNAc
# In short: as §1
# [29] = biological target: Neu5Ac(a2-6)Gal(b1-4)GlcNAc(b1-3)Gal(b1-4)GlcNAc(b1-3)[Neu5Ac(a2-6)Gal(b1-4)GlcNAc(b1-3)Gal(b1-4)GlcNAc(b1-6)]GalNAc
# In short: as §1
# [30] = biological target: Neu5Ac(a2-6)Gal(b1-4)GlcNAc(b1-3)Gal(b1-4)GlcNAc(b1-6)[Gal(b1-3)]GalNAc
# In short: as §1
# [31] = biological target: Neu5Ac(a2-6)Gal(b1-4)GlcNAc(b1-3)Gal(b1-4)[Fuc(a1-3)]GlcNAc(b1-3)Gal(b1-4)[Fuc(a1-3)]GlcNAc
# In short: as §1
# [32] = biological target: Neu5Ac(a2-6)Gal(b1-4)GlcNAc(b1-3)GalNAc
# In short: as §1
# [33] = biological target: Neu5Ac(a2-6)Gal(b1-4)GlcNAc(b1-3)[Neu5Ac(a2-6)Gal(b1-4)GlcNAc(b1-6)]GalNAc
# In short: as §1
# [34] = biological target: Neu5Ac(a2-6)Gal(b1-4)GlcNAc(b1-6)GalNAc
# In short: as §1
# [35] = biological target: Neu5Ac(a2-6)Gal(b1-4)GlcNAc(b1-6)[Gal(b1-3)GlcNAc(b1-3)]Gal(b1-4)Glc
# In short: as §1
# [36] = biological target: Neu5Ac(a2-6)Gal(b1-4)GlcNAc(b1-6)[Gal(b1-3)]GalNAc
# In short: as §1
# [37] = biological target: Neu5Ac(a2-6)Gal(b1-4)GlcNAc6S
# In short: as §1
# Neu5Ac(a2-6)GalNAc = biological target: Neu5Ac(a2-6)GalNAc
# In short: as §1
# [38] = biological target: Neu5Ac(a2-6)GalNAc(b1-4)GlcNAc
# In short: as §1
# [39] = biological target: Neu5Ac(a2-6)GalNAc(b1-4)GlcNAc6S
# In short: as §1
# [40] = biological target: Neu5Ac(a2-6)GlcNAc(b1-4)GlcNAc
# In short: as §1
# [41] = biological target: Neu5Ac(a2-6)GlcNAc(b1-4)GlcNAc(b1-4)GlcNAc
# In short: as §1
binder,measurement,setting,value
B1,glycan array binding signal (z-score),Neu5Ac(a2-3)GalNAc,0.204
same,glycan array binding signal (z-score),[1],0.216
same,glycan array binding signal (z-score),[2],-0.374
same,glycan array binding signal (z-score),[3],0.195
same,glycan array binding signal (z-score),[4],-0.525
same,glycan array binding signal (z-score),[5],-0.542
same,glycan array binding signal (z-score),Neu5Ac(a2-6)Gal,-0.173
same,glycan array binding signal (z-score),[6],-0.477
same,glycan array binding signal (z-score),Neu5Ac(a2-6)Gal(b1-4)Glc,0.107
same,glycan array binding signal (z-score),[7],0.039
same,glycan array binding signal (z-score),[8],-0.5
same,glycan array binding signal (z-score),[9],-0.159
same,glycan array binding signal (z-score),[10],0.415
same,glycan array binding signal (z-score),[11],-0.407
same,glycan array binding signal (z-score),[12],-0.544
same,glycan array binding signal (z-score),[13],0
same,glycan array binding signal (z-score),[14],0.954
same,glycan array binding signal (z-score),[15],1.42
same,glycan array binding signal (z-score),[16],-0.418
same,glycan array binding signal (z-score),[17],-0.484
same,glycan array binding signal (z-score),[18],0.107
same,glycan array binding signal (z-score),[19],-0.197
same,glycan array binding signal (z-score),[20],0.051
same,glycan array binding signal (z-score),[21],0.128
same,glycan array binding signal (z-score),[22],-0.409
same,glycan array binding signal (z-score),[23],-0.359
same,glycan array binding signal (z-score),[24],0.645
same,glycan array binding signal (z-score),[25],-0.258
same,glycan array binding signal (z-score),[26],-0.532
same,glycan array binding signal (z-score),[27],0.854
same,glycan array binding signal (z-score),[28],0.252
same,glycan array binding signal (z-score),[29],-0.308
same,glycan array binding signal (z-score),[30],0.025
same,glycan array binding signal (z-score),[31],-0.094
same,glycan array binding signal (z-score),[32],0.244
same,glycan array binding signal (z-score),[33],0.449
same,glycan array binding signal (z-score),[34],-0.376
same,glycan array binding signal (z-score),[35],-0.069
same,glycan array binding signal (z-score),[36],-0.217
same,glycan array binding signal (z-score),[37],0.003
same,glycan array binding signal (z-score),Neu5Ac(a2-6)GalNAc,-0.585
same,glycan array binding signal (z-score),[38],0.11
same,glycan array binding signal (z-score),[39],-0.288
same,glycan array binding signal (z-score),[40],0.243
same,glycan array binding signal (z-score),[41],-0.179
